# Assay results from PubChem BioAssay AID1347073 (National Center for Advancing Translational Sciences (NCATS), 2019).
# In all, about 45,000 compounds went through this assay and about 200 (0.44%) were called active. Inconclusive means that the source gave no clear call. Such entries were picked first, then a sample of the others. Calls come from the whole dose curve; as a rule, active = well fitted activation curve with a large enough effect; inconclusive = small, poorly fitted or top-dose-only effect; inactive = no such curve, though single readings can be large or run the other way. Potencies beside an inconclusive call are fits to weak or partial responses and may not hold up.
# Experiment: qHTS of TDP-43 Inhibitors: NCGC Sytravon Library Screen; note: nearly all actives have a fitted effect of over 55% in size; for growth rescue (activation): 0% is about no effect
# Settings: yeast TDP-43 toxicity rescue, BacTiter-Glo growth, 24 h; growth rescue (activation): at 46.1 µM (top of the series)
# How it was run: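 TDP-43-expressing yeast, pregrown in raffinose, seeded at OD600 0.02 in galactose medium with compound for 24 hr at 30 deg C. Growth read by BacTiter-Glo luminescence, so rescue of toxicity appears as activation.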
# Potency is the fitted concentration of half-maximal effect; tags give direction and shape of the fitted curve.
Structure (SMILES),growth rescue (activation),Potency
OC(c1ccc(F)cc1)c1nc(-c2ccc(Cl)cc2)cs1 (configuration not stated),inconclusive: 96.8% [activator],
CCOC(=O)c1cc(-c2ccccc2)n(CCC(=O)N2CCN(c3ccc(OC)cc3)CC2)c1C,,"inconclusive: 25.1 µM [activator, single point]"
Cn1cc(CCC(=O)NC2CC(C)(C)Cc3c2cnn3-c2ccc(F)cc2)cn1 (configuration not stated),inconclusive: -44.9% [activator],
COCCN(C(=S)Nc1cccc(OC)c1)C(C)c1cccs1 (configuration not stated),,"inconclusive: 10 µM [activator, partial curve, poor fit]"
CC(C)COC(=O)N1CCCCC1c1cc(C(=O)Nc2ccc3c(c2)OCO3)no1 (configuration not stated),,"inconclusive: 20 µM [activator, partial curve, poor fit]"
Cc1cc(NC(=O)c2ccc(Cl)cc2)n(CCOC(=O)c2ccc(Cl)cc2)n1,,"inconclusive: 10 µM [activator, partial curve, poor fit]"
O=c1[nH]c(-c2ccccn2)nc(C(F)(F)F)c1Br,,"inconclusive: 3.55 µM [activator, single point]"
CCOC(=O)c1c(NC(C)=O)c2c3c(sc2n1Cc1cccc(Cl)c1)CCCC3,,inactive
Cc1ccccc1OCCC(=O)Nc1ccc(F)c(Cl)c1,,"inconclusive: 15.8 µM [activator, partial curve, poor fit]"
O=[N+]([O-])c1cccc(Cl)c1CSc1ccccn1,,inactive
Cc1ccc(C)c(S(=O)(=O)N2CCN(CC(=O)Nc3sccc3C#N)CC2)c1,,"inconclusive: 12.6 µM [activator, partial curve, poor fit]"
O=C(COc1ccccc1)Nc1ccccc1Oc1ccccc1,,"inconclusive: 10 µM [activator, partial curve, poor fit]"
COc1ccc2c(c1)-c1nc(NC(=O)c3cc(OC)c(OC)c(OC)c3)sc1CC2,,inactive
Cc1nn(-c2ccccc2)c2sc(C(=O)Nc3ccc(Cl)cc3Cl)cc12,,inactive
O=C(c1ccccc1)c1cc([N+](=O)[O-])ccc1N1CCCC1,,"inconclusive: 25.1 µM [activator, partial curve, poor fit]"
O=C(O)c1ccc(-c2ccco2)n1Cc1ccccc1,,"inconclusive: 11.2 µM [activator, partial curve, poor fit]"
Cc1[nH]c2ccccc2c1/C=C/c1nc2ccccc2c(=O)[nH]1,,"inconclusive: 11.2 µM [activator, partial curve, poor fit]"
CCOc1ccc(N2C(=O)CC(N(C)Cc3ccccc3)C2=O)cc1 (configuration not stated),,"inconclusive: 12.6 µM [activator, partial curve, poor fit]"
Cc1ccc(S(=O)(=O)NC(=O)C2(C)CCN2C(=O)c2ccccc2)nc1 (configuration not stated),,inactive
CCNC(=S)Nc1ccc(C)c(S(=O)(=O)Nc2ccccc2OC)c1,,"inconclusive: 20 µM [activator, single point]"
CN=c1scc(-c2ccc(F)cc2)n1/N=C/c1ccc(O)c(O)c1,,"inconclusive: 35.5 µM [activator, single point]"
COC(=O)c1sccc1NC(=O)Cc1ccc(OC)cc1,,"inconclusive: 11.2 µM [activator, partial curve, poor fit]"
COc1ccc(C2CC2/C(C)=N/OC(=O)C2CC2)cc1 (configuration not stated),,"inconclusive: 14.1 µM [activator, single point]"

Structure (SMILES),growth rescue (activation),Potency
CN(C)S(=O)(=O)Oc1ccccc1C(=O)Nc1ccccc1Cl,,inactive
O=C(O)c1nn(CCOc2cccc(Cl)c2)c(=O)c2ccccc12,,"inconclusive: 25.1 µM [activator, single point]"
Cc1cc(C)n(CCNC(=O)c2ccco2)n1,,inactive
CC1(C(=O)Nc2cccc3cccnc23)CCN1Cc1ccc(-c2ccccc2)o1 (configuration not stated),inconclusive: 46.2% [activator],
Cc1sc2ncnc(NCC3COc4ccccc4O3)c2c1C (configuration not stated),,"inconclusive: 12.6 µM [activator, partial curve, poor fit]"
Cc1csc(Sc2ccc(C(=O)OCC(=O)Nc3ccc(OC(F)(F)F)cc3)cc2[N+](=O)[O-])n1,,"inconclusive: 17.8 µM [activator, partial curve, poor fit]"
Cc1ccc(NC(=O)CCC(=O)N/N=C/c2cccnc2)cc1,,inactive
Cn1cc(CCCC(=O)NCc2ccccc2)c2ccccc21,,"inconclusive: 17.8 µM [activator, partial curve, poor fit]"
NC(=O)c1oc2ccccc2c1NC(=O)c1ccc([N+](=O)[O-])o1,,"inconclusive: 1.78 µM [activator, partial curve, poor fit]"
CCCS(=O)(=O)c1nc(S(=O)(=O)c2ccc(C)cc2)c(NCc2ccccc2Cl)s1,,inactive
C=CCSc1nc(C)cc2c1C(=O)OC2,,active: 10 µM
COc1ccc(C2CC(=O)N(C)c3ccccc3S2)cc1OC (configuration not stated),,"inconclusive: 12.6 µM [activator, single point]"
COc1ccc(OCCSc2nnc3c(Cl)cc(Cl)cn23)cc1,,"inconclusive: 12.6 µM [activator, partial curve, poor fit]"
CC(=O)c1ccc(NC(=O)[C@@H]2CCCN2C(=O)OC(C)(C)C)cc1,,inactive
O=C1NC2=C(C(=O)CCC2)C(c2ccc([N+](=O)[O-])cc2)N1 (configuration not stated),,inactive
Cc1ccc(N=Nc2ccc(O)c3ncccc23)cc1,,"inconclusive: 3.16 µM [activator, single point]"
OC(c1ccc(F)c(F)c1)c1nc(-c2ccc3ccccc3c2)cs1 (configuration not stated),inconclusive: 139% [activator],
COc1ccc(OCC(=O)NCc2nc(-c3ccccc3)no2)cc1,,inactive
O=C(CCl)N1CCN(S(=O)(=O)c2ccc3ccccc3c2)CC1,,"inconclusive: 11.2 µM [activator, partial curve]"
Nn1c(Cc2cccc3ccccc23)nnc1SCc1c(Cl)cccc1Cl,,"inconclusive: 22.4 µM [activator, single point]"
CC1CCCCC1NC(=O)CSc1ccc([N+](=O)[O-])cc1 (configuration not stated),,"inconclusive: 7.08 µM [activator, partial curve]"
N/C(Cc1ccc([N+](=O)[O-])cc1)=N\OC(=O)COc1ccccc1Cl,,"inconclusive: 12.6 µM [activator, single point]"
Cc1ccc(N(C)C(=O)C2CCCN2S(=O)(=O)c2cccc3nsnc23)cc1 (configuration not stated),,"inconclusive: 17.8 µM [activator, single point]"

Structure (SMILES),growth rescue (activation),Potency
O=C(c1cc(-c2cccc(Cl)c2)on1)N1CCCC1,,"inconclusive: 12.6 µM [activator, partial curve]"
CNS(=O)(=O)c1c(C)cc(C)c(N(C)S(=O)(=O)c2ccccc2)c1C,,inactive
CCN(Cc1ccccc1)C(=O)c1cc(COc2c(F)cccc2F)on1,,"inconclusive: 35.5 µM [activator, single point]"
CC(O)(c1ccccc1)c1nc(-c2cccc(C(F)(F)F)c2)cs1 (configuration not stated),inconclusive: -92.1% [activator],
CCCCN(C(=O)c1cc(=O)[nH]c2ccccc12)c1c(N)n(CCC)c(=O)[nH]c1=O,,"inconclusive: 35.5 µM [activator, single point]"
O=C(NCc1ccc(Cl)cc1)[C@@H]1CCCN1S(=O)(=O)c1ccc(Cl)cc1,,"inconclusive: 20 µM [activator, single point]"
O=C(Nc1ccn(Cc2cccc3ccccc23)n1)c1cccnc1,,"inconclusive: 8.91 µM [activator, partial curve]"
COc1cc2c(cc1OC)CN(C(=O)/C=C/c1ccccc1[N+](=O)[O-])CC2,,"inconclusive: 17.8 µM [activator, partial curve, poor fit]"
CCOC(=O)N1CCN(c2ncnc3scc(-c4ccccc4)c23)CC1,,"inconclusive: 20 µM [activator, single point]"
Cc1cc(-c2n[nH]c(=S)n2/N=C/C(Br)=C/c2ccccc2)n[nH]1,,"inconclusive: 15.8 µM [activator, partial curve, poor fit]"
CCOc1cc(-c2nc3ccccc3s2)ccc1O,,active: 22.4 µM
COc1ccccc1C=NNC(=O)c1ccccc1OCCOc1ccccc1,,"inconclusive: 28.2 µM [activator, partial curve, poor fit]"
COc1ccc(/C=C2\CCc3ccccc3C2=O)cc1O,,"inconclusive: 28.2 µM [activator, partial curve, poor fit]"
COc1cccc(CN2CCNC(=O)C2CC(=O)NCCn2nc(C)cc2C)c1OC (configuration not stated),,"inconclusive: 28.2 µM [activator, single point]"
O=C(CSc1ccc(F)cc1)Nc1ccc(N2CCOCC2)c(Cl)c1,,"inconclusive: 3.16 µM [activator, partial curve, poor fit]"
N#CCCn1c(O)c(N=NC(=O)CNC(=O)c2cccs2)c2ccccc21,,"inconclusive: 17.8 µM [activator, single point]"
O=C(Nc1nccs1)C(Br)C(Br)c1ccccc1 (configuration not stated),,"inconclusive: 11.2 µM [activator, partial curve, poor fit]"
CC(C)C(NC(=O)c1ccccc1)C(=O)N1CCCCCC1 (configuration not stated),,inactive
COc1ccc(NC(=S)NCCc2c[nH]c3ccccc23)cc1,,"inconclusive: 7.08 µM [activator, partial curve]"
CC(C)Sc1nc(NCc2ccco2)c2c3c(sc2n1)COC(C)(C)C3,,"inconclusive: 20 µM [activator, partial curve, poor fit]"
COc1cc(-c2nc3nc[nH]n3c2Nc2ccc(C(C)C)cc2)ccc1O,,inactive
